Assay results reported in patent publication US20230293588A1 (RUBIUS THERAPEUTICS, published 2023).

Molecular target: 41-BB receptor on cells (T-cells of PBMCs; Jurkat cells overexpressing 41-BB and NFkB-Luc2P) (UniProt Q07011 24-255)
Assay: cell-based or functional assay

B1: 41-BB-L expressed on RCTs (RCT-41-BB-L) (ligand)
chain: not shown
Work on B1 yielded an NFkB-mediated luciferase expression of 30 fold and a T-cell proliferation of 1.7 fold.
